These results are taken from article PMC11960843, “Exploration of the tunability of BRD4 degradation by DCAF16 trans-labelling covalent glues” (European journal of medicinal chemistry, 2024).

This experiment addresses BRD4BD2 (Homo sapiens, UniProt O60885). The experiment in a line: BRD4BD2-eGFP and mCherry flow reporter degradation assay, wild type K562 cells. To be noted: 16 h incubation.

Structures are written as SMILES.

`Cc1sc2c(c1C)C(c1ccc(C#CCN)cc1)=N[C@@H](CC(=O)OC(C)(C)C)c1nnc(C)n1-2` [GNE011, tert-butyl (S)-2-(4-(4-(3-aminoprop-1-yn-1-yl)phenyl)-2,3,9-trimethyl-6H-thieno[3,2-f][1,2,4]triazolo[4,3-a][1,4]diazepin-6-yl)acetate, reference compound]: the “bromodomain selectivity of degradation (BRD4BD2 vs BRD4BD1 reporter)” value is “selective degradation of the second bromodomain (BRD4BD2) over the first (BRD4BD1)”.
